A lower IC50 marks a more sensitive line; a limit (>, <) means that the fit lies beyond the doses tested. AUC, from the same fit, is the share of area under the viability curve across the 256-fold dose range: 1 means no effect, lower means more sensitive.
Compound: NC1(c2ccc(-c3nc4ccn5c(=O)[nH]nc5c4cc3-c3ccccc3)cc2)CCC1 [MK-2206]
Test: Viability of human cancer cell lines after 72 h of drug (GDSC screen)
Experimental: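 Human cancer cell lines in 384-well plates, medium with 10% serum, drug for 72 h over a 256-fold dose range (nine 2-fold or five 4-fold steps up to the top dose). Adherent lines were fixed and stained with the nucleic acid dye Syto60, suspension lines read with resazurin; signal relative to control wells, capped at 0 and 100%. One two-parameter sigmoid per drug and line, fitted in a mixed model over all curves with the slope shared within a line.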

Row | Cell Line | AUC | IC50
1 | ES3 (Ewing sarcoma, adherent, top dose 2 µM) | 0.821 | 1.24 µM
2 | TGBC1TKB (biliary tract, adherent, top dose 4 µM) | 0.932 | > 4 µM
3 | LN-18 (glioma, adherent, top dose 4 µM) | 0.907 | 3.64 µM
4 | LOUCY (T-cell lymphoblastic leukaemia, suspension, top dose 4 µM) | 0.649 | 0.592 µM
5 | LOXIMVI (melanoma, semi-adherent, top dose 4 µM) | 0.93 | > 4 µM
6 | NCI-H2347 (lung adenocarcinoma, adherent, top dose 4 µM) | 0.976 | > 4 µM
7 | BT-20 (breast, adherent, top dose 4 µM) | 0.856 | > 4 µM
8 | DOV13 (ovary, adherent, top dose 4 µM) | 0.856 | > 4 µM
9 | SW1271 (small cell lung carcinoma, adherent, top dose 4 µM) | 0.954 | > 4 µM
10 | TYK-nu (ovary, adherent, top dose 4 µM) | 0.826 | 2.65 µM
11 | NCI-H2141 (small cell lung carcinoma, suspension, top dose 4 µM) | 0.974 | > 4 µM
12 | HT-1080 (fibrosarcoma, adherent, top dose 4 µM) | 0.95 | > 4 µM
13 | SAS (head and neck, adherent, top dose 4 µM) | 0.966 | > 4 µM
14 | KYSE-450 (oesophagus, adherent, top dose 4 µM) | 0.959 | > 4 µM
15 | SNB75 (glioma, adherent, top dose 4 µM) | 0.838 | > 4 µM
16 | SU-DHL-10 (B-cell lymphoma, suspension, top dose 4 µM) | 0.587 | 0.404 µM
17 | NCI-H1781 (lung adenocarcinoma, adherent, top dose 4 µM) | 0.926 | > 4 µM
18 | SW962 (urogenital system, adherent, top dose 4 µM) | 0.853 | > 4 µM
19 | A704 (kidney, adherent, top dose 4 µM) | 0.844 | 2.72 µM
20 | BT-549 (breast, adherent, top dose 4 µM) | 0.922 | > 4 µM
21 | HT (B-cell lymphoma, suspension, top dose 4 µM) | 0.681 | 0.762 µM

Row | Cell Line | AUC | IC50
22 | MES-SA (uterus, adherent, top dose 4 µM) | 0.878 | 3.05 µM
23 | LB996-RCC (kidney, adherent, top dose 2 µM) | 0.928 | > 2 µM
24 | CHP-126 (neuroblastoma, suspension, top dose 4 µM) | 0.938 | > 4 µM
25 | Hs766T (pancreas, adherent, top dose 4 µM) | 0.819 | 3.3 µM
26 | H2869 (mesothelioma, adherent, top dose 4 µM) | 0.941 | > 4 µM
27 | D-423MG (glioma, adherent, top dose 4 µM) | 0.811 | 2.72 µM
28 | ES-2 (ovary, adherent, top dose 4 µM) | 0.8 | 1.67 µM
29 | KARPAS-1106P (B-cell lymphoma, suspension, top dose 4 µM) | 0.873 | 2.74 µM
30 | LAN-6 (neuroblastoma, adherent, top dose 4 µM) | 0.898 | > 4 µM
31 | LNCaP-Clone-FGC (prostate, adherent, top dose 4 µM) | 0.643 | 0.661 µM
32 | NB6 (neuroblastoma, adherent, top dose 4 µM) | 0.981 | > 4 µM
33 | WIL2-NS (lymphoid neoplasm, suspension, top dose 4 µM) | 0.992 | > 4 µM
34 | SNU-61 (large intestine, adherent, top dose 4 µM) | 0.895 | > 4 µM
35 | SU-DHL-6 (B-cell lymphoma, suspension, top dose 4 µM) | 0.386 | 0.132 µM
36 | JIMT-1 (breast, adherent, top dose 4 µM) | 0.736 | 1.26 µM
37 | HOS (osteosarcoma, adherent, top dose 4 µM) | 0.917 | > 4 µM
38 | GI-ME-N (neuroblastoma, adherent, top dose 4 µM) | 0.924 | > 4 µM
39 | MOLP-8 (myeloma, suspension, top dose 4 µM) | 0.739 | 1.17 µM
40 | RVH-421 (melanoma, adherent, top dose 4 µM) | 0.854 | > 4 µM
41 | BCPAP (thyroid, adherent, top dose 2 µM) | 0.943 | > 2 µM
42 | NCI-H1703 (lung adenocarcinoma, adherent, top dose 4 µM) | 0.566 | 0.394 µM

Row | Cell Line | AUC | IC50
43 | SF539 (glioma, adherent, top dose 4 µM) | 0.912 | > 4 µM
44 | JHU-029 (head and neck, adherent, top dose 4 µM) | 0.767 | 1.82 µM
45 | DIFI (large intestine, adherent, top dose 4 µM) | 0.676 | 0.794 µM
46 | KYSE-520 (oesophagus, adherent, top dose 4 µM) | 0.933 | > 4 µM
47 | KARPAS-422 (B-cell lymphoma, suspension, top dose 4 µM) | 0.629 | 0.564 µM
48 | G-292 Clone A141B1 (osteosarcoma, adherent, top dose 4 µM) | 0.96 | > 4 µM
49 | LP-1 (myeloma, suspension, top dose 4 µM) | 0.974 | > 4 µM
50 | D-566MG (glioma, adherent, top dose 4 µM) | 0.922 | > 4 µM
51 | CAL-51 (breast, adherent, top dose 4 µM) | 0.939 | > 4 µM
52 | TOV-21G (ovary, adherent, top dose 4 µM) | 0.928 | > 4 µM
53 | LNZTA3WT4 (glioma, adherent, top dose 4 µM) | 0.919 | > 4 µM
54 | NB1 (neuroblastoma, semi-adherent, top dose 4 µM) | 0.612 | 0.527 µM
55 | OVMIU (ovary, adherent, top dose 4 µM) | 0.875 | > 4 µM
56 | ES4 (Ewing sarcoma, adherent, top dose 4 µM) | 0.932 | > 4 µM
57 | MN-60 (B-cell leukaemia, suspension, top dose 4 µM) | 0.977 | > 4 µM
58 | CGTH-W-1 (thyroid, adherent, top dose 4 µM) | 0.858 | 3.24 µM
59 | A388 (skin, adherent, top dose 4 µM) | 0.828 | 2.96 µM
60 | H2461 (mesothelioma, adherent, top dose 4 µM) | 0.838 | 3.74 µM
61 | CP50-MEL-B (melanoma, adherent, top dose 4 µM) | 0.978 | > 4 µM
62 | TE-15 (oesophagus, suspension, top dose 4 µM) | 0.827 | 2.89 µM
